# Data reported in the supplement of paper PMC8728848.
# This is one part of the list.
# B1: CLEC5A (Homo sapiens), Q9NY25 (protein)
# chain: MNWHMIISGLIVVVLKVVGMTLFLLYFPQIFNKSNDGFTTTRSYGTVSQIFGSSSPSPNGFITTRSYGTVCPKDWEFYQARCFFLSTSESSWNESRDFCKGKGSTLAIVNTPEKLKFLQDITDAEKYFIGLIYHREEKRWRWINNSVFNGNVTNQNQNFNCATIGLTKTFDAASCDISYRRICEKNAK
# Key:
# Assay in all cases: glycan array binding signal (z-score within array); higher = stronger binding
# Details in all cases: glycan notation: IUPAC condensed, linker removed
# [1] = biological target: Neu5Ac(a2-3)Gal(b1-3)GlcNAc(b1-4)Gal(b1-4)Glc
# Method in brief: (§1)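 The binding signal is a Z-score computed within each array. Data were drawn from 3228 arrays in the Consortium for Functional Glycomics database, restricted to those with a known protein sequence. Scores were averaged over arrays of the same protein sequence at different concentrations or buffers, and over linkers, and negative values can be taken as non-binding.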
# [2] = biological target: Neu5Ac(a2-3)Gal(b1-3)GlcNAc(b1-6)GalNAc
# Method in brief: as §1
# [3] = biological target: Neu5Ac(a2-3)Gal(b1-3)GlcNAc6S
# Method in brief: as §1
# [4] = biological target: Neu5Ac(a2-3)Gal(b1-3)[Fuc(a1-3)]GlcN(b1-3)Gal(b1-4)Glc
# Method in brief: as §1
# [5] = biological target: Neu5Ac(a2-3)Gal(b1-3)[Fuc(a1-4)]GlcNAc
# Method in brief: as §1
# [6] = biological target: Neu5Ac(a2-3)Gal(b1-3)[Fuc(a1-4)]GlcNAc(b1-3)Gal(b1-3)[Fuc(a1-4)]GlcNAc
# Method in brief: as §1
# [7] = biological target: Neu5Ac(a2-3)Gal(b1-3)[Fuc(a1-4)]GlcNAc(b1-3)Gal(b1-4)Glc
# Method in brief: as §1
# [8] = biological target: Neu5Ac(a2-3)Gal(b1-3)[Fuc(a1-4)]GlcNAc(b1-3)Gal(b1-4)[Fuc(a1-3)]GlcNAc
# Method in brief: as §1
# [9] = biological target: Neu5Ac(a2-3)Gal(b1-3)[GlcNAc(b1-6)]GalNAc
# Method in brief: as §1
# [10] = biological target: Neu5Ac(a2-3)Gal(b1-3)[Neu5Ac(a2-3)Gal(b1-4)]GlcNAc
# Method in brief: as §1
# [11] = biological target: Neu5Ac(a2-3)Gal(b1-3)[Neu5Ac(a2-6)]GalNAc
# Method in brief: as §1
# [12] = biological target: Neu5Ac(a2-3)Gal(b1-3)[Neu5Ac(a2-6)]GalNAc(b1-4)Gal(b1-4)Glc
# Method in brief: as §1
# [13] = biological target: Neu5Ac(a2-3)Gal(b1-3)[Neu5Ac(a2-6)]GlcNAc(b1-3)Gal(b1-4)Glc
# Method in brief: as §1
# [14] = biological target: Neu5Ac(a2-3)Gal(b1-3)[Neu5Ac(a2-6)]GlcNAc(b1-3)[Fuc(a1-3)[Gal(b1-4)]GlcNAc(b1-6)]Gal(b1-4)Glc
# Method in brief: as §1
# [15] = biological target: Neu5Ac(a2-3)Gal(b1-3)]Neu5Ac(a2-3)Gal(b1-4)]GlcNAc
# Method in brief: as §1
# Neu5Ac(a2-3)Gal(b1-4)Glc = biological target: Neu5Ac(a2-3)Gal(b1-4)Glc
# Method in brief: as §1
# [16] = biological target: Neu5Ac(a2-3)Gal(b1-4)GlcNAc
# Method in brief: as §1
# [17] = biological target: Neu5Ac(a2-3)Gal(b1-4)GlcNAc(b1-2)Man
# Method in brief: as §1
# [18] = biological target: Neu5Ac(a2-3)Gal(b1-4)GlcNAc(b1-2)Man(a1-3)[GlcNAc(b1-2)Man(b1-4)GlcNAc(b1-2)Man(a1-6)]Man(b1-4)GlcNAc(b1-4)GlcNAc
# Method in brief: as §1
# [19] = biological target: Neu5Ac(a2-3)Gal(b1-4)GlcNAc(b1-2)Man(a1-3)[GlcNAc(b1-4)][Neu5Ac(a2-3)Gal(b1-4)GlcNAc(b1-2)Man(a1-6)]Man(b1-4)GlcNAc(b1-4)GlcNAc
# Method in brief: as §1
# [20] = biological target: Neu5Ac(a2-3)Gal(b1-4)GlcNAc(b1-2)Man(a1-3)[Neu5Ac(a2-3)Gal(b1-4)GlcNAc(b1-2)Man(a1-6)]Man(b1-4)GlcNAc(b1-4)GlcNAc
# Method in brief: as §1
# [21] = biological target: Neu5Ac(a2-3)Gal(b1-4)GlcNAc(b1-2)Man(a1-3)[Neu5Ac(a2-3)Gal(b1-4)GlcNAc(b1-2)Man(a1-6)]Man(b1-4)GlcNAc(b1-4)[Fuc(a1-6)]GlcNAc
# Method in brief: as §1
# [22] = biological target: Neu5Ac(a2-3)Gal(b1-4)GlcNAc(b1-2)Man(a1-3)[Neu5Ac(a2-6)Gal(b1-4)GlcNAc(b1-2)Man(a1-6)]Man(b1-4)GlcNAc(b1-4)GlcNAc
# Method in brief: as §1
# [23] = biological target: Neu5Ac(a2-3)Gal(b1-4)GlcNAc(b1-2)[Neu5Ac(a2-3)Gal(b1-4)GlcNAc(b1-4)]Man(a1-3)[GlcNAc(b1-4)][Neu5Ac(a2-3)Gal(b1-4)GlcNAc(b1-2)[Neu5Ac(a2-3)Gal(b1-4)GlcNAc(b1-6)]Man(a1-6)]Man(b1-4)GlcNAc(b1-4)GlcNAc
# Method in brief: as §1
# [24] = biological target: Neu5Ac(a2-3)Gal(b1-4)GlcNAc(b1-2)[Neu5Ac(a2-3)Gal(b1-4)GlcNAc(b1-4)]Man(a1-3)[GlcNAc(b1-4)][Neu5Ac(a2-3)Gal(b1-4)GlcNAc(b1-4)Man(a1-6)]Man(b1-4)GlcNAc(b1-4)GlcNAc
# Method in brief: as §1
# [25] = biological target: Neu5Ac(a2-3)Gal(b1-4)GlcNAc(b1-2)[Neu5Ac(a2-3)Gal(b1-4)GlcNAc(b1-6)]Man(a1-6)[Neu5Ac(a2-3)Gal(b1-4)GlcNAc(b1-2)Man(a1-3)]Man(b1-4)GlcNAc(b1-4)GlcNAc
# Method in brief: as §1
# [26] = biological target: Neu5Ac(a2-3)Gal(b1-4)GlcNAc(b1-2)[Neu5Ac(a2-3)Gal(b1-4)GlcNAc(b1-6)]Man(a1-6)[Neu5Ac(a2-3)Gal(b1-4)GlcNAc(b1-2)Man(a1-3)][GlcNAc(b1-4)]Man(b1-4)GlcNAc(b1-4)GlcNAc
# Method in brief: as §1
# [27] = biological target: Neu5Ac(a2-3)Gal(b1-4)GlcNAc(b1-3)Gal
# Method in brief: as §1
# [28] = biological target: Neu5Ac(a2-3)Gal(b1-4)GlcNAc(b1-3)Gal(b1-3)GlcNAc
# Method in brief: as §1
# [29] = biological target: Neu5Ac(a2-3)Gal(b1-4)GlcNAc(b1-3)Gal(b1-4)Glc
# Method in brief: as §1
# [30] = biological target: Neu5Ac(a2-3)Gal(b1-4)GlcNAc(b1-3)Gal(b1-4)GlcNAc
# Method in brief: as §1
# [31] = biological target: Neu5Ac(a2-3)Gal(b1-4)GlcNAc(b1-3)Gal(b1-4)GlcNAc(b1-2)Man(a1-3)[Neu5Ac(a2-3)Gal(b1-4)GlcNAc(b1-3)Gal(b1-4)GlcNAc(b1-2)Man(a1-6)]Man(b1-4)GlcNAc(b1-4)GlcNAc
# Method in brief: as §1
# [32] = biological target: Neu5Ac(a2-3)Gal(b1-4)GlcNAc(b1-3)Gal(b1-4)GlcNAc(b1-3)Gal(b1-4)GlcNAc
# Method in brief: as §1
# [33] = biological target: Neu5Ac(a2-3)Gal(b1-4)GlcNAc(b1-3)Gal(b1-4)GlcNAc(b1-3)Gal(b1-4)GlcNAc(b1-2)Man(a1-3)[Neu5Ac(a2-3)Gal(b1-4)GlcNAc(b1-3)Gal(b1-4)GlcNAc(b1-3)Gal(b1-4)GlcNAc(b1-2)Man(a1-6)]GalNAc
# Method in brief: as §1
# [34] = biological target: Neu5Ac(a2-3)Gal(b1-4)GlcNAc(b1-3)Gal(b1-4)GlcNAc(b1-3)GalNAc
# Method in brief: as §1
# [35] = biological target: Neu5Ac(a2-3)Gal(b1-4)GlcNAc(b1-3)Gal(b1-4)GlcNAc(b1-3)[Neu5Ac(a2-3)Gal(b1-4)GlcNAc(b1-3)Gal(b1-4)GlcNAc(b1-6)]GalNAc
# Method in brief: as §1
# [36] = biological target: Neu5Ac(a2-3)Gal(b1-4)GlcNAc(b1-3)Gal(b1-4)GlcNAc(b1-6)[Gal(b1-3)]GalNAc
# Method in brief: as §1
# [37] = biological target: Neu5Ac(a2-3)Gal(b1-4)GlcNAc(b1-3)Gal(b1-4)[Fuc(a1-3)]GlcNAc
# Method in brief: as §1
# [38] = biological target: Neu5Ac(a2-3)Gal(b1-4)GlcNAc(b1-3)GalNAc
# Method in brief: as §1
# [39] = biological target: Neu5Ac(a2-3)Gal(b1-4)GlcNAc(b1-3)[Neu5Ac(a2-3)Gal(b1-4)GlcNAc(b1-6)]GalNAc
# Method in brief: as §1
# [40] = biological target: Neu5Ac(a2-3)Gal(b1-4)GlcNAc(b1-6)GalNAc
# Method in brief: as §1
# [41] = biological target: Neu5Ac(a2-3)Gal(b1-4)GlcNAc(b1-6)GalNAc(a1-3)Gal(b1-4)Glc
# Method in brief: as §1
# [42] = biological target: Neu5Ac(a2-3)Gal(b1-4)GlcNAc(b1-6)[Gal(b1-3)]GalNAc
# Method in brief: as §1
# [43] = biological target: Neu5Ac(a2-3)Gal(b1-4)GlcNAc(b1-6)[Neu5Ac(a2-3)Gal(b1-3)]GalNAc
# Method in brief: as §1
# [44] = biological target: Neu5Ac(a2-3)Gal(b1-4)GlcNAc6S
# Method in brief: as §1
binder,measurement,setting,value
B1,glycan array binding signal (z-score),[1],-0.012
same,glycan array binding signal (z-score),[2],-0.188
same,glycan array binding signal (z-score),[3],0.026
same,glycan array binding signal (z-score),[4],-0.224
same,glycan array binding signal (z-score),[5],-0.242
same,glycan array binding signal (z-score),[6],-0.257
same,glycan array binding signal (z-score),[7],-0.224
same,glycan array binding signal (z-score),[8],0.08
same,glycan array binding signal (z-score),[9],-0.229
same,glycan array binding signal (z-score),[10],-0.111
same,glycan array binding signal (z-score),[11],-0.013
same,glycan array binding signal (z-score),[12],-0.32
same,glycan array binding signal (z-score),[13],0.258
same,glycan array binding signal (z-score),[14],-0.258
same,glycan array binding signal (z-score),[15],-0.189
same,glycan array binding signal (z-score),Neu5Ac(a2-3)Gal(b1-4)Glc,-0.141
same,glycan array binding signal (z-score),[16],-0.233
same,glycan array binding signal (z-score),[17],0.058
same,glycan array binding signal (z-score),[18],-0.008
same,glycan array binding signal (z-score),[19],-0.191
same,glycan array binding signal (z-score),[20],0.065
same,glycan array binding signal (z-score),[21],-0.192
same,glycan array binding signal (z-score),[22],0.127
same,glycan array binding signal (z-score),[23],0.064
same,glycan array binding signal (z-score),[24],-0.034
same,glycan array binding signal (z-score),[25],0.192
same,glycan array binding signal (z-score),[26],-0.191
same,glycan array binding signal (z-score),[27],-0.199
same,glycan array binding signal (z-score),[28],-0.158
same,glycan array binding signal (z-score),[29],-0.32
same,glycan array binding signal (z-score),[30],-0.395
same,glycan array binding signal (z-score),[31],-0.094
same,glycan array binding signal (z-score),[32],-0.3
same,glycan array binding signal (z-score),[33],0.036
same,glycan array binding signal (z-score),[34],-0.176
same,glycan array binding signal (z-score),[35],-0.109
same,glycan array binding signal (z-score),[36],-0.156
same,glycan array binding signal (z-score),[37],0.024
same,glycan array binding signal (z-score),[38],0.042
same,glycan array binding signal (z-score),[39],-0.183
same,glycan array binding signal (z-score),[40],0.007
same,glycan array binding signal (z-score),[41],-0.32
same,glycan array binding signal (z-score),[42],-0.337
same,glycan array binding signal (z-score),[43],-0.122
same,glycan array binding signal (z-score),[44],-0.182
